# Whole data set: some 33,000 sequences, median “E-score (-0.5 to 0.5)” near -0.016, cut for the highest 2% near 0.32. This is one part of the list.
# Target: T1, Stp1 (UniProt B3LFK1)
# T1 sequence: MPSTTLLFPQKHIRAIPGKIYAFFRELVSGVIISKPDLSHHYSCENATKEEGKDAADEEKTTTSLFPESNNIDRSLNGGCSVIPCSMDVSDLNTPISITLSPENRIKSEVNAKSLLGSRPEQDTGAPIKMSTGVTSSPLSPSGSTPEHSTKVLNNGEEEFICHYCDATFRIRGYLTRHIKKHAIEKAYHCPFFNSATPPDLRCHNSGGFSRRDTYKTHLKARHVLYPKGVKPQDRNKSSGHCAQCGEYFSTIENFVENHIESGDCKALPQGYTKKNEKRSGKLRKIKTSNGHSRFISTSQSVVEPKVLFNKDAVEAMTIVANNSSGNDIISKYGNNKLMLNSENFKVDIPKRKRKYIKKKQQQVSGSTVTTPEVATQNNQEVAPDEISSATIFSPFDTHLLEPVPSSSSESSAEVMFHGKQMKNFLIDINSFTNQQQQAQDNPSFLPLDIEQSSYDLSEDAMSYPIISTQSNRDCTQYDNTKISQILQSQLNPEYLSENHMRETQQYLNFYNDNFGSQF
# Assay: PBM E-score (8-mer binding enrichment) (E-score (-0.5 to 0.5)); higher = stronger / more preferred TF binding; most listed sequences are background and not binding sites
# Conditions: protein concentration: 200 nM; construct: GST-full length
# How it was run: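 Each ungapped eight-base word and its reverse complement, pooled, received an E-score from the Universal PBM Analysis Suite. Underlying scans, normalised with masliner, recorded fluorescent anti-GST bound to GST-tagged yeast transcription factors. These were applied at about 100-200 nM to universal all-10-mer Agilent arrays double-stranded by primer extension.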
row,Sequence,PBM E-score
1,CTTTACCA,-0.213
2,CCGTGCCG,0.47
3,ATCCGAGC,-0.18
4,CCACGAAG,-0.117
5,GTGAGATA,0.055
6,AGAATGTG,-0.127
7,CCTGCCCG,-0.0213
8,ATGGTACC,-0.108
9,GGAGAGAA,-0.0643
10,AAACAGGC,-0.0678
11,AAGAACAA,0.227
12,ACTGTCAT,-0.0811
13,AGATTTAC,0.0354
14,GAACCTGC,-0.18
15,AAGCCGTC,0.296
16,ATGGAAGG,0.0495
17,GATCCGTA,0.12
18,CCTTGAGC,0.0884
19,CACAACGG,0.108
20,CATGGCCG,0.21
21,CTTCGATC,-0.0129
22,TGCACACA,-0.18
23,CCCTACCG,-0.0543
24,CATACTGC,0.0714
25,CAGGCGGG,-0.168

row,Sequence,PBM E-score
1,TGGTAGAA,0.0217
2,TAAAAGAA,0.162
3,ATCTACGC,0.15
4,CAAGAATA,0.194
5,ATGACTCA,0.00451
6,CTTCGAAA,0.138
7,AAGTGAGG,-0.112
8,ATGAAGAG,0.183
9,GTTCAAAC,0.323
10,AGTGGCAC,0.209
11,CGGTAACC,-0.0393
12,AACAGTCA,-0.139
13,ACAGTCAT,-0.112
14,ACCGCTCC,-0.223
15,ACAAGCTA,-0.122
16,CGACGGCC,0.0289
17,ACGAGCCG,0.336
18,ATTACCCA,0.0334
19,CGATTTAC,0.0834
20,AATGTTTA,0.0994
21,TCTTATCA,0.208
22,GATCGCCC,-0.113
23,ACTAGGTC,-0.125
24,ACGTCAAT,-0.117
25,AAAATTTC,0.043

row,Sequence,PBM E-score
1,CAACGGTG,-0.212
2,ATGCAGCA,-0.108
3,CACCGCGA,-0.0402
4,AGGAATTC,-0.0587
5,AAAACGCT,-0.076
6,CAACTATA,-0.0288
7,ACCGTCCA,-0.0612
8,ACGGGGTG,0.155
9,AGATTGGG,-0.127
10,CCTTCACC,-0.13
11,TGAATTAA,0.186
12,CTTCAACA,-0.028
13,GATGAAAA,0.164
14,AGGGCGCG,0.369
15,AGCAATTC,9e-05
16,AAATGCTC,0.0723
17,CTTCTTAA,0.165
18,CCTCAGTC,-0.229
19,AAAACACA,0.148
20,AAAAAAAG,0.103
21,TGGGCTAA,-0.186
22,AACGGTCG,0.0305
23,CCTCGGCG,0.251
24,AGGAGCCC,-0.212
25,AAGTCGAC,-0.0585

row,Sequence,PBM E-score
1,ATTCCATA,0.134
2,CCACCATC,-0.263
3,AAACTCAG,0.073
4,CGCCCGAA,-0.174
5,TGCCCACA,-0.0178
6,GGCCACTA,-0.174
7,CAACCCAA,-0.0926
8,GCCCCGTA,0.0346
9,ACCAGGCT,-0.326
10,GGTTGGAA,-0.145
11,TCCTACAA,0.134
12,AGTCGCAG,-0.0298
13,AAGCACGC,0.187
14,GAAAGTTA,0.00961
15,AATAAACT,-0.00226
16,GCCCTAGA,-0.0515
17,CATGAGCG,-0.0374
18,GACCTATC,-0.0906
19,CGAGACAG,0.0336
20,ACGTTGTC,-0.0835
21,ATGAGTAG,0.148
22,CGGTGTTA,-0.136
23,ATGCGGGC,0.0547
24,ACATCAGT,-0.0144
25,CAAGAAAC,0.118

row,Sequence,PBM E-score
1,ACATTTCG,-0.0901
2,GTCCTGCA,-0.257
3,ATGGTCCG,0.116
4,CCCCCCGA,-0.373
5,CGTACAAC,0.176
6,ATGCACGC,0.164
7,ACCATATA,0.2
8,GGGGTGCA,-0.214
9,CGACTGCG,-0.098
10,CGGATAAG,0.11
11,AATCTCGA,0.0854
12,CGTGGCCC,-0.112
13,GAAACTCA,0.0096
14,GCAATCCA,0.0301
15,AAGAGCGA,-0.231
16,GTCATGAC,-0.0708
17,ACCAAATG,0.00152
18,CGAAACAA,0.144
19,ACCCTAGT,-0.113
20,GCAACAGC,0.0755
21,CGGGAGTA,-0.0338
22,CGTCGCTC,-0.0769
23,AATTTGAT,0.0908
24,ACCGCTCA,0.0634
25,GGGCCCAC,-0.1

row,Sequence,PBM E-score
1,ATTTCGAC,0.0292
2,TATCGGCA,0.177
3,CCCCAATC,-0.182
4,TTCAGCAA,-0.154
5,ACAACCGC,0.15
6,ACTCGGAA,-0.0391
7,ATGTGATG,-0.123
8,CAAGAGAC,-0.124
9,ATCGCTGA,-0.0887
10,ACATAGAT,0.164
11,CCCCTTTC,-0.253
12,CCCCACAC,-0.136
13,TCACCGGA,-0.0974
14,GGAGAAAC,-0.0635
15,TCGGCCGA,0.135
16,ACAGCTGT,-0.107
17,TAGCGAAA,0.0053
18,TAGCTACA,-0.0531
19,ATCAAAGC,-0.0114
20,GAGACGCC,0.263
21,GTAACTCA,-0.0768
22,AGACACGC,-0.0342
23,AATGGTAT,0.0569
24,CCTCCTCA,-0.213
25,AACTGAGT,-0.0894

row,Sequence,PBM E-score
1,TCCAGACA,-0.0334
2,GACTTGTA,-0.138
3,AGCCCAGG,-0.387
4,ACCCATAC,-0.0919
5,ACTGCCCT,-0.0286
6,AAAAAGGC,0.249
7,AAAGTGCA,0.0017
8,CTACCTCC,-0.247
9,AAGGAGGG,-0.106
10,CAAACGGA,0.236
11,ACACTGCG,-0.00317
12,GAGCCTCA,0.214
13,GGTTGCAC,-0.154
14,TAGTCACA,0.0308
15,CCCGTATC,0.0159
16,CTAAGGAG,-0.24
17,GCCGGAAA,-0.0749
18,CCCCCGAA,-0.215
19,GATAGGGC,0.0849
20,GCGATTTA,0.188
21,AGCTGGCC,-0.105
22,AAAGGAAT,-0.00184

# From the supplement of paper PMC3334620
